Where “and” joins values, the source holds several entries; their conditions need not be identical. Equal values may be shown once. Out of some 420,000 compounds screened, about 64,000 (15%) were called active. Inconclusive results, whose numbers are uncertain, are shown with a selection of clear calls. Calls come from the whole dose curve; as a rule, active = well fitted inhibition curve with a large enough effect; inconclusive = small, poorly fitted or top-dose-only effect; inactive = flat fitted curve, though single readings scatter. No potency is given beside an inconclusive call; the fits are too rough.
test: qHTS for Inhibitors of human tyrosyl-DNA phosphodiesterase 1 (TDP1): qHTS in cells in absence of CPT; conditions: DT40 Tdp1-/- hTDP1 cells, no CPT, ATP luminescence, 48 h; activity change, negative = growth inhibition: at 46.2 µM (top of the series) unless noted; note: nearly all actives have a fitted effect of over 55% in size
How it was run: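 Chicken DT40 Tdp1-/- cells stably complemented with human TDP1 were seeded at 400 cells/well with DMSO in place of 20 nM camptothecin. After compound pinning, cells grew at least 48 hr at 37 °C; viability read by CellTiter-Glo luminescence.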
% is set by controls: 0 for no effect and ±100 for the full control effect; potency is the fitted concentration of half-maximal effect; tags give direction and shape of the fitted curve.

Row | SMILES | Potency | activity change, negative = growth inhibition
1 | CN(C)C(=O)c1c(NC(=O)c2ccccc2F)sc2c1CCCC2 | inconclusive [inhibitor, partial curve] | –
2 | O=c1oc2ccccc2cc1-c1csc(NN=C2CCCC2)n1 | inconclusive [inhibitor, single point] | –
3 | CC(C)(C)OC(=O)CNC(=O)c1[nH]cnc1C(=O)NCCCCCN | inactive | –
4 | Cc1c(Cl)cccc1NS(=O)(=O)c1ccc2c(c1)C1C=CCC1C(c1ccc(C(=O)O)cc1)N2 (stereo not given) | inactive | –
5 | O=C(NN=Cc1ccc(OC(F)F)cc1)c1ccc(NS(=O)(=O)c2cccs2)cc1 | inconclusive [inhibitor, single point] | –
6 | COc1ccc(NC(=O)c2cc(C3CCCCN3S(=O)(=O)c3ccc(C#N)cc3)on2)c(C)c1 (stereo not given) | inconclusive [inhibitor, single point] | –
7 | COc1ccc([C@H]2[C@H](C(=O)OC(C)(C)C)N3N=Cc4ccccc4C3C23C(=O)c2ccccc2C3=O)cc1OC (stereo not given in full) | inconclusive [inhibitor, single point] | –
8 | O=C(Nc1ccc(C#Cc2ccccc2)cc1)C1CC1 | inactive | –
9 | CCc1cccc(C)c1N1C(=O)CN(Cc2ccccc2)C1=S | inconclusive [inhibitor, single point] | –
10 | CCOC(=O)c1cc(C)n(-c2ccc(OC)c(OC)c2)c1C | active: 18.4 µM | –
11 | Cc1ccc(S(=O)(=O)Nc2nc3n(n2)C(c2ccc(F)cc2)C=C(c2ccccc2)N3)cc1 (stereo not given) | inconclusive [inhibitor, single point] | –
12 | Nc1nc2ccc([N+](=O)[O-])cc2s1 | inconclusive [inhibitor, partial curve] | –
13 | CC1(C(=O)NS(C)(=O)=O)CCN1C(=O)Cc1ccc(-c2ccccc2)cc1 (stereo not given) | inactive | –
14 | Nc1c(N2CCCC2)cc(Cl)c2nonc12 | inconclusive [inhibitor, single point] | –
15 | O=C(CCCCCCCCCCCCC1CCCC1)Nc1ccc(S(=O)(=O)c2ccc(NC(=O)CCCCCCCCCCCCC3CCCC3)cc2)cc1 | inactive | –
16 | CN(c1ccc(F)cc1)S(=O)(=O)c1ccc(Cl)c(C(=O)NCC2(N3CCOCC3)CCCCC2)c1 | active: 7.31 µM | –
17 | CC1=C(C(=O)Nc2ccc(Cl)cc2)C(CC(C)C)n2nc(SCc3ccccc3C)nc2N1 (stereo not given) | inconclusive [inhibitor, partial curve] | –
18 | S=c1[nH]cc2cnccn12 | inactive | –
19 | Cc1c(C#N)c(N=CN(C)C)c(C(=O)c2ccc(Br)cc2)n1-c1ccc(Cl)cc1 | inconclusive [inhibitor, partial curve] | –
20 | CCCC(=O)Nc1cccc(NC(=O)c2ccc3c(c2)OCCO3)c1 | inconclusive [inhibitor, partial curve, poor fit] | –
21 | CCN1CCN(Cc2ccc(NC(=O)c3cc(NC(=O)c4cnnc5ccccc45)cc(OC)c3)cc2C(F)(F)F)CC1 | active: 13 µM and active: 6.51 µM | –
22 | O=C(COc1ccc2ccccc2c1)NC1CC(=O)N(c2cccc(F)c2)C1 (stereo not given) | inconclusive [inhibitor, single point] | –
23 | CC(=O)Nc1ccccc1NC(=O)C/C(C)=N/NC(=O)c1ccccn1 | inactive | –
24 | O=C(CCl)N1CCN(CC(=O)N2CCCC2)CC1 | inactive | –

Row | SMILES | Potency | activity change, negative = growth inhibition
25 | O=C(NCCOc1ccccc1)c1ccc2c(c1)S(=O)(=O)c1cc(Cl)ccc1C2=O | inconclusive [inhibitor, single point] | –
26 | C#Cc1ccc([C@@H]2C=C(C(=O)NCc3ccccc3)O[C@H](OCC)[C@H]2CCCO)cc1 | inconclusive [inhibitor, single point] | –
27 | CCC1(c2ccccc2)NC(=O)N(CC(=O)Nc2ccc3c(c2)CCC3)C1=O (stereo not given) | inconclusive [inhibitor, single point] | –
28 | COc1ccc(-c2nnc(NC(=O)c3ccccc3C)o2)cc1 | active: 14.6 µM | –
29 | NNC(=O)CNC(=O)CNS(=O)(=O)c1ccccc1 | inactive | –
30 | C#CCNc1nc(C(C)C)nc2c1nnn2Cc1ccccc1F | inconclusive [inhibitor, single point] | –
31 | CC(C)[C@H](NS(=O)(=O)c1ccc2c(c1)OCCO2)C(=O)OCC(=O)Nc1cc(Cl)ccc1Cl | active: 29.1 µM | –
32 | CC1=Nc2cc(C(=O)NCCCN3CCOCC3)ccc2Sc2c(C)ccc(C)c21 | inconclusive [inhibitor, single point] | –
33 | CCCc1ccc(C(O)c2ncc(-c3ccc(C)cc3)[nH]2)cc1 (stereo not given) | inconclusive [inhibitor, single point] | –
34 | S=C(NCC1COc2ccccc2O1)Nc1ccccc1 (stereo not given) | inconclusive [inhibitor, single point] | –
35 | Cc1cc2cc(CNC(=S)NCc3ccccc3)ccc2n1C | inactive | –
36 | CNC(=O)c1ccc(=O)n(Cc2cccc(C(F)(F)F)c2)c1 | inactive | –
37 | O=S(=O)(Cc1cc(N2CCOCC2)nc(-c2ccccn2)n1)c1ccccc1 | active: 18.4 µM | –
38 | O=C(COc1ccc(Cl)cc1Cl)N(c1ccccn1)C1CCCCC1 | inconclusive [inhibitor, single point] | –
39 | COc1cccc(OC)c1NC(=O)CN1CCN(C)CC1 | inactive | –
40 | CCOC(=O)C1(CCOc2ccccc2)CCN(Cc2ccc3nonc3c2)CC1 | active: 20.6 µM | –
41 | Cc1cc(C)n(-c2ccc(NC(=O)C3CCCCN3C(=O)c3cc(C)oc3C)cc2)n1 (stereo not given) | inconclusive [inhibitor, single point] | –
42 | CCCCC(=O)NCCNc1nc2c(c(=O)n(C)c(=O)n2C)n1Cc1ccccc1 | inconclusive [inhibitor, partial curve, poor fit] | –
43 | COc1ccccc1/C=C1/SC(=S)N(CCC(=O)Nc2cccnc2)C1=O | inconclusive [inhibitor, single point] | –
44 | NS(=O)(=O)c1ccc(NC(=S)N2CCN(c3cccc(Cl)c3)CC2)cc1 | active: 7.31 µM | –
45 | Cc1ccc(CN2CCN(CC(=O)N=Nc3c(O)[nH]c4ccccc34)CC2)cc1 | active: 14.6 µM | –
46 | CCOc1cccc(-c2c(C(=O)N/N=C/c3ccc(C)s3)nnn2-c2nonc2N)c1 | inactive | –
47 | O=C(O)Cc1ccc(NCc2ccccc2Cl)cc1 | inactive | –
48 | O=[N+]([O-])c1cc(N=Nc2ccc3ccccc3c2)ccc1O | inconclusive [inhibitor, partial curve, poor fit] | –

Row | SMILES | Potency | activity change, negative = growth inhibition
49 | CCc1ccc(NC(=O)COC(=O)C2(c3ccc(Cl)cc3)CCCC2)cc1 | active: 20.6 µM | –
50 | CCN(CC)c1ccc(NC(=O)c2cc3ccccc3o2)c(C)c1 | inconclusive [inhibitor, partial curve] | –
51 | O=C(NCC(c1ccco1)S(=O)(=O)c1cccs1)c1ccccc1F (stereo not given) | inconclusive [inhibitor, single point] | –
52 | CCOC(=O)N1CCC2(CC1)NC(=O)c1ccccc1N2 | inconclusive [inhibitor, partial curve] | –
53 | COc1ccc(CNC(=O)CN(C)Cc2ccccc2F)cc1OC | inconclusive [inhibitor, single point] | –
54 | CC(=O)N(C(C)=O)c1c(N2CCOCC2)c2ccccc2oc1=O | inactive | –
55 | c1csc(CNc2ncncc2-c2ccc3c(c2)OCO3)c1 | inconclusive [inhibitor, single point] | –
56 | COc1ccc(NC(=O)c2oc3ccc(S(=O)(=O)N4CCOCC4)cc3c2C)cc1 | active: 10.3 µM | –
57 | CCCCn1c(N)c(N(CC)C(=O)c2c(C)noc2C)c(=O)[nH]c1=O | inactive | –
58 | O=c1oc2ccc3ccccc3c2cc1-c1nnc(Nc2ccc(F)cc2)s1 | inconclusive [inhibitor, partial curve] | –
59 | COc1cc(CNC(=O)c2cccc(COc3ccc(Cl)cc3)c2)cc(OC)c1 | active: 16.4 µM | –
60 | CN(CCOc1ccc(Cl)cc1)CC(O)c1ccccc1 (stereo not given) | inconclusive [inhibitor, single point] | –
61 | COC(=O)C1=C(C(=O)OC)[N+]2=C3N(C(=O)NC2(C)C)[C@H](CO)C[C@@]32c3ccccc3N(Cc3ccccc3)[C@@H]12 | inconclusive [inhibitor, single point] | –
62 | O=C1S/C(=C/c2ccc(N3CCOCC3)o2)C(=O)N1Cc1ccc(F)cc1 | inconclusive [inhibitor, single point] | –
63 | Cc1ccccc1S(=O)(=O)NCC[C@@H]1CC[C@@H](NC(=O)C2CCCC2)[C@@H](CO)O1 | inconclusive [inhibitor, single point] | –
64 | CCN(CC(=O)NC)S(=O)(=O)c1ccc(Br)cc1 | inactive | –
65 | CC(C)(C)OC(=O)N[C@@H](Cc1ccccc1)c1nnc(SCC(=O)c2ccc(Cl)cc2)o1 | inconclusive [inhibitor, partial curve] | –
66 | C/C(CCN1CCc2nc(-c3ccccc3)c(-c3ccccc3)cc2C1)=N\OC[C@@H](C)[C@H](OCc1ccccc1)C(C)C | inconclusive [inhibitor, single point] | –
67 | CC(=O)N=C1SC2CS(=O)(=O)CC2N1c1ccccc1Cl (stereo not given) | – | inconclusive: -37.7% [inhibitor]
68 | COc1ccc(NC(=S)N(CCC(C)C)C2CCN(C(C)=O)CC2)cc1 | inactive | –
69 | COc1ccc(C2c3c(n(C)c4ccccc34)C(=O)N2CC(=O)Nc2cccc(F)c2)cc1 (stereo not given) | inconclusive [inhibitor, single point] | –
70 | CCCCNC(=O)CNC(=O)c1nn(-c2ccc(OC)c(Cl)c2)c(=O)c2ccccc12 | inconclusive [inhibitor, partial curve] | –
